Experimental data published in US20230059836A1.

Tests used:
[1] = target: hCTLA-4-Fc fusion protein having a biotin-label (human) (UniProt P16410); assay: FACS competition: 0.5 uM biotin hCTLA-4-Fc binding to CHO-human B7-1 cells
[2] = target: Antigen CTLA-4 (SPR analyte) (UniProt P16410); assay: SPR (Biacore T200), binder captured via Fc, CTLA-4 as analyte

IC50 [1]: 18.6 nM
Kd [2]: 6.3 nM
B1: BCP-34 (bispecific antibody, from a related filing, not shown: a dimerising Fc or GST)
chain: EIVLTQSPATLSLSPGERATLSCRASKGVSTSGYSYLHWYQQKPGQAPRLLIYLASYLESGVPARFSGSGSGTDFTLTISSLEPEDFAVYYCQHSRDLPLTFGGGTKVEIKGGGGSGGGGSGGGGSQVQLVQSGVEVKKPGASVKVSCKASGYTFTNYYMYWVRQAPGQGLEWMGGINPSNGGTNFNEKFKNRVTLTTDSSTTTAYMELKSLQFDDTAVYYCARRDYRFDMGFDYWGQGTTVTVSSEPKSCDKTHTCPPCPQVKLEESGGGLVLPGESLRLSCEASGRTITTITMGWFRQAPGKERQFVASHSWTDNNPYYADSVKGRFIISRDNAGNRVYLQMHSLEPEDTAVYYCAATARRSFVGRQWYTEARQYDYWGQGTQVTVSS[sequence of human IgG1 Fc not given]
